The source of these data is the RNAGym collection of RNA variant scans (doi:10.7554/elife.90254).

First the molecules themselves.
B1: LINE1-mini (parent)
chain: GGCAGAGCUCAACACAGCGUGGCAAAGUGGCUGUGGCUAGACUGCC

The source gives no read counts; variants with many changes may rest on few reads.

This series covers variants of B1. In words: self-cleavage, relative activity (ratio to wild type); higher = more cleavage; in vitro, sequencing; the parent is a self-cleaving ribozyme.
As for GGCAAAGCUCAACACAGCGUGGCAAAGUGGCUGUGGCUACAAUGCC, the self-cleavage worked out at 0.03.

Consider GGCAAACCUCAACACAGCGUGGCAAAGUGGCUGAGGCUAGACUGGC, for which the self-cleavage came to 0.05.

With GGCAAAGCUCAACACAGGGUGGCACAGUGGCUGUGGCUAGACUUUC, the self-cleavage was found to be 0.01. The result for GGCAAAGCUCAACACAGCUUGGCAAAGUGGCUGUGGCUAGAAUGCC reads 0.04. Consider GGCAAAGCUCAACAUAGCGUGGGAAAGUAGCUGUGGCGAGACCGCC, for which the self-cleavage stood at 0. For GGCAAAGCUCAACACAGCGUGGCAAAUAGGCUCUGGCUAGACUGCC, the self-cleavage stood at 0.04. As to GGCAAAGCUGAACACAGCGUGGCAAAGUGGCUGUGGCUAGACUGAC, the self-cleavage turned out to be 0.02. Regarding GGCAAAGCUCAACACAGCUUGGCAAAGUGGCGUUGGCUAGACUACC, the self-cleavage turned out to be 0.01.

For GGCAAAGCUCAACACAGCUUGGAAACGUGGCUGUGGCUAGACUGCC, the self-cleavage came to 0.05.

On to GGCAAAACUAAUCACAGCGUGGCAAAGUGGCUGUGGCUAGACUGCC, for which the self-cleavage came out at 0.01. For GGCAAAGCUCAACACAACGUGGCACAGUGGCUGUGGCUAGACUGCA, the self-cleavage is 0.04. As for GGCAAAACUCAACACAGGGUGGGAAAGUGGGUGUGGCUAGACUGCC, the self-cleavage amounted to 0.07. In the case of GGCAAAGCUCAACACAGCGUGGCAAAGUGGCUAUGGCUAGACCGAC, the self-cleavage was determined as 0.07. The result for GGCAAAGCUGAACACAGCGUGGCACAGUGGCCGUGGCUAGACUGCC reads 0.04; that for GGCAAAGCUCAACACAGCGUGGAAAAGUGGCUGUGACUAGACUGCC, 0.1; that for GGCAAAGCUCAACACAGCGUGGCAAAGUGGCUGUGGCUAGAUUGAC, 0.07. As to GGCAAAGCUCAACACAGCGUGGCAAAGUCGGUGUGGCUAGACUGCC, the self-cleavage amounted to 0.03. Take GGCAAACCACAACACAGCGUGGCAAAGUGCCGGUGGCUAGACUGCC: the self-cleavage came to 0.03. GGCAAACCUUAACCUAGCGUGGCUAAGUGGCUGUGGCCAGACUGCC: the self-cleavage was 0.05. Take GGCAAAGCUCAACACAGCGUGGCAAAAUGGCUGUGGCUAGACUACG: the self-cleavage stood at 0.04. On to GGCAAAGCUCAACAUAGCGUGUCAAAGUGGCUGUGGCGAGGCUGCC, for which the self-cleavage was 0.02. For GGCAAAGCUCAACAAAGCGUGACAAAGUGGCCGUGGCUAGACUGCC, the self-cleavage came out at 0.02.

Regarding GGCAAAGCUCAACACAGCGUGGCAAAGUAGCUGUGGCUAGACAGCC, the self-cleavage was 0.07. For the variant GGCAAAGCUGAACACAGCGUGGCAAAGUGGCUGUGGAUAGACUGCC, the self-cleavage was 0.02. The result for GGCAAAGCUUAACACUGCGUGGCAAAGUGGCUGUGGCUAGACUGCC reads 0.14; that for GGCAAAGCUCAACAGAUCGUGGCAAAGUGGCUGUGGCUAGACUGCC, 0.03; that for GGCAAAGCUCAACACAGCGUGACAAGGUCGCCGUGGCUAGACUGCC, 0.04. The result for GGCAAAGCUCAACAGAGCGUGGCAAAAUGGCGGUGGCUAGACUGCC reads 0.02; that for GGCAAAGCUCAACACAGCGUCGCAAAGUGGCUGUGGGUAGACUGUC, 0.04.

As to GGCAAAGCUCAACACAGCGUGGGCAAGCGGCUGUGGCUAGACUGAC, the self-cleavage amounted to 0.02. Regarding GGCAAAGCUCAACACAGCGUGGCAAAGUGGAUGUGGUUAGACUGCC, the self-cleavage was found to be 0.1.

For the variant GGCAAAGUUCAACACAACGUCGCAAAAUGGCUGUGGCUAGACUGCC, the self-cleavage was 0.13. GGCAAAUCUCAACACAGCGUGGCAAAGUGACUGUGGCUAGACUGCC: the self-cleavage amounted to 1.09. For GGCAAAGCUAAACUCAGCGUGGCAAAGUGGCUGUGGCCAGCCUGCC, the self-cleavage turned out to be 0.02. With GGCAAAACUAAACACAGCGUGGCAAAGUGGCUGUGGCUAGACUGCC, the self-cleavage was 0.03.

Consider GGCAAAGCAAAAGACAGCGUGGCAAAGUGGCUGCGACUAGACUGCC, for which the self-cleavage is 0.02. Turning to GGCAAACCUCAAGACAGCGUGGCAAAGUGGCUGUGGCUAGACUGCC, the self-cleavage amounted to 0.15.

Consider GGCAAAGCUCAACACAGCGUAGCAAAGUGGCUGGGGCUAAACUACC, for which the self-cleavage was 0.03. Take GGCAAAGCUCAAGACAGCGUGGCAAAGUGGCUGUGCCUAGACUGCC: the self-cleavage is 0. The result for GGCAAAGCUCAACACAGCGUUGCAAAGUGGGUGUGGCUAGACUGCC reads 0.12; that for GGCAAAGCUCAACACAGCGUGGCAAAGUGGCUUUGGCUAGACCGCC, 0.01; that for GGCAAAGCUCAACACAGCCUGGCAAAGUGGCUGUGGCUAGACUGCA, 0.27. For the variant GGCAAACCUCAACACAGCGUGGCAAAGUGGCUGUGGUUAGACUGCC, the self-cleavage came to 0.34. Take GGCAAAGCUCAACACAGCGUGGCAAAGUGGCUGUGACUAGACUGAC: the self-cleavage is 0.23. For the variant GGCAAAGCUCAACACAGCAUGGCAAAGUGGCUGUGGCUAGACUUCC, the self-cleavage was 0.03.

Take GGCAAAGCUCAACACAGCGUGGCAAAGUGGCUGUGGCUAUCAUGCC: the self-cleavage came to 0.2. With GGCAAAGCUCAACAUUGCGCGGCAAAGUGGCUGUGGCUAGACUGCC, the self-cleavage came out at 0.07.

In the case of GGCAAAGCUCAACAGGGCGUGGAAAAGUGGGUGUGGCUAGACUGCC, the self-cleavage amounted to 0.03. The result for GGCAAAGCUCAACACAGCGUGGAAAAGUGGCUGUGGUUAGACUGCC reads 0.05. As for GGCAAAGCUCAACACAGCGUGGCAAAGUGUCUGUGGCUAUACUGCC, the figure is 0.02; as for GGCAAAGCUAAAUACAGUGUGGCAAAGUGGCUGCGGCUAGACUUCC, 0.1; as for GGCAAAGCUCAACAUAACGUGGCAAAGUGGCUGUCGCUAGACUGCC, 0.03.

For the variant GGCAAAGUUCAACACAGCGUGGCAAAGUGGCUGUGGCUAGACUGCU, the self-cleavage is 0.17. Regarding GGCAAAGCUCAACACAGCGUGGCAAAGUGGCUGUGCCUAGAAUGCC, the self-cleavage is 0.12. Regarding GGCAAAGCUCAACACAGCGUGGCAAAGUGGCUAUGUUUAGACUGCC, the self-cleavage stood at 0.07. The result for GGCAAAGCUCAACAGAGCGUGCCAAAGUGGAGGUGGCUAGACUACC reads 0.
